The labels stand for the following.
B1: UCUCUUC (DNA:RNA)
RNA: GGGAGACCGGAAUUCAGAUUGUCCUCUCUUCUUAAAUCCCGUCGUAGCCACCA
DNA 1: CAATCTGAATTCCGGTCTCCC
DNA 2: TGGTGGCTACGACGGGATT
B2: CAGCCUG (DNA:RNA)
RNA: B1 RNA with U25C, C26A, U27G, U29C, C31G
DNA 1: CAATCTGAATTCCGGTCTCCC
DNA 2: TGGTGGCTACGACGGGATT
B3: UCGAAAG (DNA:RNA)
RNA: B1 RNA with U27G, C28A, U29A, U30A, C31G
DNA 1: CAATCTGAATTCCGGTCTCCC
DNA 2: TGGTGGCTACGACGGGATT
B4: CUCGAGA (DNA:RNA)
RNA: GGGAGACCGGAAUUCAGAUUGUCCCUCGAGAUUAAAUCCCGUCGUAGCCACCA
DNA 1: CAATCTGAATTCCGGTCTCCC
DNA 2: TGGTGGCTACGACGGGATT
B5: CUCAUCC (DNA:RNA)
RNA: B4 RNA with G28A, A29U, G30C, A31C
DNA 1: CAATCTGAATTCCGGTCTCCC
DNA 2: TGGTGGCTACGACGGGATT
B6: AAGACAA (DNA:RNA)
RNA: B4 RNA with C25A, U26A, C27G, G28A, A29C, G30A
DNA 1: CAATCTGAATTCCGGTCTCCC
DNA 2: TGGTGGCTACGACGGGATT
B7: CUACGUG (DNA:RNA)
RNA: B4 RNA with C27A, G28C, A29G, G30U, A31G
DNA 1: CAATCTGAATTCCGGTCTCCC
DNA 2: TGGTGGCTACGACGGGATT
B8: GAUAACU (DNA:RNA)
RNA: B4 RNA with C25G, U26A, C27U, G28A, G30C, A31U
DNA 1: CAATCTGAATTCCGGTCTCCC
DNA 2: TGGTGGCTACGACGGGATT
B9: GUAUCAA (DNA:RNA)
RNA: B4 RNA with C25G, C27A, G28U, A29C, G30A
DNA 1: CAATCTGAATTCCGGTCTCCC
DNA 2: TGGTGGCTACGACGGGATT
B10: CCCUAGG (DNA:RNA)
RNA: B4 RNA with U26C, G28U, A31G
DNA 1: CAATCTGAATTCCGGTCTCCC
DNA 2: TGGTGGCTACGACGGGATT
B11: AGCUGAA (DNA:RNA)
RNA: B4 RNA with C25A, U26G, G28U, A29G, G30A
DNA 1: CAATCTGAATTCCGGTCTCCC
DNA 2: TGGTGGCTACGACGGGATT
B12: AUCCGGC (DNA:RNA)
RNA: B4 RNA with C25A, G28C, A29G, A31C
DNA 1: CAATCTGAATTCCGGTCTCCC
DNA 2: TGGTGGCTACGACGGGATT
B13: AUUCGAU (DNA:RNA)
RNA: B1 RNA with U25A, C26U, U29G, U30A, C31U
DNA 1: CAATCTGAATTCCGGTCTCCC
DNA 2: TGGTGGCTACGACGGGATT
B14: AGGCCAC (DNA:RNA)
RNA: B1 RNA with U25A, C26G, U27G, U29C, U30A
DNA 1: CAATCTGAATTCCGGTCTCCC
DNA 2: TGGTGGCTACGACGGGATT
B15: GAAGGGC (DNA:RNA)
RNA: B4 RNA with C25G, U26A, C27A, A29G, A31C
DNA 1: CAATCTGAATTCCGGTCTCCC
DNA 2: TGGTGGCTACGACGGGATT
B16: AAGAGAA (DNA:RNA)
RNA: B4 RNA with C25A, U26A, C27G, G28A, A29G, G30A
DNA 1: CAATCTGAATTCCGGTCTCCC
DNA 2: TGGTGGCTACGACGGGATT
B17: CAAGAAA (DNA:RNA)
RNA: B4 RNA with U26A, C27A, G30A
DNA 1: CAATCTGAATTCCGGTCTCCC
DNA 2: TGGTGGCTACGACGGGATT
B18: GGGAAAG (DNA:RNA)
RNA: B4 RNA with C25G, U26G, C27G, G28A, G30A, A31G
DNA 1: CAATCTGAATTCCGGTCTCCC
DNA 2: TGGTGGCTACGACGGGATT
B19: CGCCUCC (DNA:RNA)
RNA: B1 RNA with U25C, C26G, U27C, U30C
DNA 1: CAATCTGAATTCCGGTCTCCC
DNA 2: TGGTGGCTACGACGGGATT
B20: ACGAACC (DNA:RNA)
RNA: B1 RNA with U25A, U27G, C28A, U29A, U30C
DNA 1: CAATCTGAATTCCGGTCTCCC
DNA 2: TGGTGGCTACGACGGGATT
B21: UGAUCCC (DNA:RNA)
RNA: B1 RNA with C26G, U27A, C28U, U29C, U30C
DNA 1: CAATCTGAATTCCGGTCTCCC
DNA 2: TGGTGGCTACGACGGGATT
B22: UUACUGU (DNA:RNA)
RNA: B1 RNA with C26U, U27A, U30G, C31U
DNA 1: CAATCTGAATTCCGGTCTCCC
DNA 2: TGGTGGCTACGACGGGATT
B23: AGCUCGG (DNA:RNA)
RNA: B4 RNA with C25A, U26G, G28U, A29C, A31G
DNA 1: CAATCTGAATTCCGGTCTCCC
DNA 2: TGGTGGCTACGACGGGATT
B24: UCCAGCA (DNA:RNA)
RNA: B4 RNA with C25U, U26C, G28A, A29G, G30C
DNA 1: CAATCTGAATTCCGGTCTCCC
DNA 2: TGGTGGCTACGACGGGATT
B25: AUUAGGG (DNA:RNA)
RNA: B4 RNA with C25A, C27U, G28A, A29G, A31G
DNA 1: CAATCTGAATTCCGGTCTCCC
DNA 2: TGGTGGCTACGACGGGATT
B26: AGUUGCU (DNA:RNA)
RNA: B1 RNA with U25A, C26G, C28U, U29G, U30C, C31U
DNA 1: CAATCTGAATTCCGGTCTCCC
DNA 2: TGGTGGCTACGACGGGATT
B27: CAGAGCC (DNA:RNA)
RNA: B4 RNA with U26A, C27G, G28A, A29G, G30C, A31C
DNA 1: CAATCTGAATTCCGGTCTCCC
DNA 2: TGGTGGCTACGACGGGATT
B28: CGUCAAA (DNA:RNA)
RNA: B4 RNA with U26G, C27U, G28C, G30A
DNA 1: CAATCTGAATTCCGGTCTCCC
DNA 2: TGGTGGCTACGACGGGATT
B29: UGGUGUU (DNA:RNA)
RNA: B1 RNA with C26G, U27G, C28U, U29G, C31U
DNA 1: CAATCTGAATTCCGGTCTCCC
DNA 2: TGGTGGCTACGACGGGATT
B30: CGCUAUC (DNA:RNA)
RNA: B4 RNA with U26G, G28U, G30U, A31C
DNA 1: CAATCTGAATTCCGGTCTCCC
DNA 2: TGGTGGCTACGACGGGATT
B31: UAUUCGG (DNA:RNA)
RNA: B1 RNA with C26A, C28U, U29C, U30G, C31G
DNA 1: CAATCTGAATTCCGGTCTCCC
DNA 2: TGGTGGCTACGACGGGATT

For 31 molecules, binding signal results are on record in article PMC9911399, “Two distinct binding modes provide the RNA-binding protein RbFox with extraordinary sequence specificity”.

Where a chain is given by its changes, count along the chain named. The list shows a part of the results.

The assay concerns the target T1, RBFOX1 RRM (Homo sapiens, UniProt Q9NWB1 109-208).
T1 sequence: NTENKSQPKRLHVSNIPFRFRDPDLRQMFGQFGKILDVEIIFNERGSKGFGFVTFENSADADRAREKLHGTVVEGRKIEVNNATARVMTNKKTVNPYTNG
Put plainly: EMSA; HiTS-Eq, 1 nM pool, 10 min; buffer printed only for the single-RNA assays: 10 mM Tris pH 7.5, 150 mM NaCl, 3.4 mM EDTA, 0.001% NP-40, 30 C. Particulars: tags: His6 N-terminal (pET28a); label: 5' 32P. A digest of the protocol: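 Purified wild-type or mutant RbFox RRM at increasing concentrations was equilibrated with 1 nM of 5′-radiolabelled RNA carrying 7 randomized nucleotides for 10 min in 50 µL. Unbound RNA was separated by 8% native PAGE and sequenced. Relative association constants came from read-count changes of each RNA species compared with the control reaction, normalised to the cognate motif.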
As for B1, the binding signal was 0.0078 KA relative to UGCAUGU.

As to B2, the binding signal is 0.0185 KA relative to UGCAUGU.

As for B3, the binding signal is 0.0155 KA relative to UGCAUGU.

As for B4, the binding signal is 0.013 KA relative to UGCAUGU.

Turning to B5, the binding signal was 0.0016 KA relative to UGCAUGU.

B6: the binding signal was 0.000869 KA relative to UGCAUGU.

Consider B7, for which the binding signal was 0.0157 KA relative to UGCAUGU.

Take B8: the binding signal was 0.00602 KA relative to UGCAUGU.

Take B9: the binding signal is 0.00628 KA relative to UGCAUGU.

In the case of B10, the binding signal was 0.00913 KA relative to UGCAUGU.

On to B11, for which the binding signal was 0.0126 KA relative to UGCAUGU.

Turning to B12, the binding signal was 0.0061 KA relative to UGCAUGU.

As to B13, the binding signal was 0.0114 KA relative to UGCAUGU.

Regarding B14, the binding signal is 0.00764 KA relative to UGCAUGU.

Regarding B15, the binding signal is 0.00535 KA relative to UGCAUGU.

Turning to B16, the binding signal is 0.00394 KA relative to UGCAUGU.

With B17, the binding signal was 0.000816 KA relative to UGCAUGU.

For B18, the binding signal was 0.0253 KA relative to UGCAUGU.

Regarding B19, the binding signal is 0.0137 KA relative to UGCAUGU.

For the molecule B20, the binding signal is 0.00241 KA relative to UGCAUGU.

On to B21, for which the binding signal was 0.00686 KA relative to UGCAUGU.

B22: the binding signal is 0.0141 KA relative to UGCAUGU.

With B23, the binding signal was 0.0167 KA relative to UGCAUGU.

For the molecule B24, the binding signal is 0.0101 KA relative to UGCAUGU.

As for B25, the binding signal is 0.00624 KA relative to UGCAUGU.

As for B26, the binding signal was 0.0135 KA relative to UGCAUGU.

Regarding B27, the binding signal was 0.00719 KA relative to UGCAUGU.

As to B28, the binding signal is 0.00128 KA relative to UGCAUGU.

B29: the binding signal was 0.0267 KA relative to UGCAUGU.

As to B30, the binding signal was 0.00548 KA relative to UGCAUGU.

Turning to B31, the binding signal was 0.0135 KA relative to UGCAUGU.
